The GPR68 mutational scans of Howard et al. (2025)
The least precise scores are not listed. The source holds two more conditions with little spread; they are left out. In variant names, del marks residues removed and ins residues inserted between the two positions. For part of these data: How much ogerin was present is not stated here.

B1: GPR68, Q15743 (parent)
chain: MGNITADNSSMSCTIDHTIHQTLAPVVYVTVLVVGFPANCLSLYFGYLQIKARNELGVYLCNLTVADLFYICSLPFWLQYVLQHDNWSHGDLSCQVCGILLYENIYISVGFLCCISVDRYLAVAHPFRFHQFRTLKAAVGVSVVIWAKELLTSIYFLMHEEVIEDENQHRVCFEHYPIQAWQRAINYYRFLVGFLFPICLLLASYQGILRAVRRSHGTQKSRKDQIQRLVLSTVVIFLACFLPYHVLLLVRSVWEASCDFAKGVFNAYHFSLLLTSFNCVADPVLYCFVSETTHRDLARLRGACLAFLTCSRTGRAREAYPLGAPEASGKSGAQGEEPELLTKLHPAFQTPNSPGSGGFPTGRLA

How the values were obtained:
[1] = variants of: B1; experiment: cAMP reporter score (Enrich2 score, wild type = 0); higher = more signal; HEK293T, FACS bins
[2] = variants of: B1; experiment: surface expression score (Enrich2 score, wild type = 0); higher = more signal; HEK293T, FACS bins

| Variant | cAMP reporter score ([1]; pH 5.5) | cAMP reporter score ([1]; pH 6) | cAMP reporter score ([1]; pH 6, modulator: ogerin) | cAMP reporter score ([1]; pH 6.5, modulator: ogerin) | surface expression score [2] |
| --- | --- | --- | --- | --- | --- |
| Q79_Y80insGSG | -1.64 | -1.36 | -2.24 | -1.22 | -2.21 |
| Q79del | -1.2 | -0.326 | -1.42 | -0.472 | 1.36 |
| Y80_L82del | -0.054 | -1.14 | -1.62 | -0.946 | 0.724 |
| Y80_V81del | -0.53 | -1.33 | -1.08 | -0.9 | 0.977 |
| V81_L82insGSG | -1.76 | -0.751 | -1.45 | -1.46 | -0.523 |
| L82_Q83del | -1.29 | -0.721 | -0.79 | -0.586 | 0.24 |
| Q83A | 0.006 | -0.092 | 0.285 | -0.852 | 0.648 |
| Q83C | -0.742 | -0.423 | -1.3 | -0.96 |  |
| Q83D | 0.064 | -0.893 | -0.649 | -1.81 |  |
| Q83E | -0.146 | -0.403 | -0.101 | -0.691 | -0.645 |
| Q83F | -1.35 | -0.822 | -1.31 | -1.46 | -1.16 |
| Q83G | -0.774 | -0.967 | -1.13 | -0.675 | 0.673 |
| Q83H | 0.228 | -0.64 | 0.088 | -0.737 | -0.91 |
| Q83I | -0.964 |  | -0.686 | -0.98 | -1.29 |
| Q83K | -0.259 | -1.07 | -0.665 | -0.86 | 0.629 |
| Q83L | 0.643 | -0.749 | -0.522 | -0.218 | -0.338 |

| Variant | cAMP reporter score ([1]; pH 5.5) | cAMP reporter score ([1]; pH 6) | cAMP reporter score ([1]; pH 6, modulator: ogerin) | cAMP reporter score ([1]; pH 6.5, modulator: ogerin) | surface expression score [2] |
| --- | --- | --- | --- | --- | --- |
| Q83M | -0.41 | -1.09 | -0.719 | -0.871 | -0.642 |
| Q83N | 0.505 | 1.16 | 2.12 | 1.84 | 1.31 |
| Q83P | -1.85 | -0.564 | -1.23 | -0.903 | -0.272 |
| Q83R | 0.11 |  | 0.592 | -0.249 | 1.4 |
| Q83S | -0.29 | -0.496 | -0.188 | -0.51 | 1.3 |
| Q83T | -0.731 | -0.89 | -1.15 | -1.19 | 0.407 |
| Q83V | -1.69 | -1.72 | -2.3 | -1.61 | -0.29 |
| Q83W | -0.447 | -0.949 | -0.507 | -0.758 | -0.414 |
| Q83Y | -0.932 | -0.598 | -1.43 | -0.748 | -0.274 |
| Q83_H84insGS | -0.877 | -0.615 | -1.42 | -1.3 | 1.43 |
| Q83del | -0.566 | -0.791 | 0.075 |  | 1.91 |
| H84_D85del | -1.26 | -1.02 | -1.93 | -1.14 | -1.36 |
| H84_D85insGSG | -1.56 | -1.28 | -2.19 | -1.29 | 0.638 |
| H84_N86del | -1.95 | -1.44 | -1.1 | -1.63 | -1.83 |
| D85_N86insGSG | -1.36 | -0.957 | -1.32 | -0.908 | 0.916 |
